The structures appear in SMILES notation. Among all 310,000 compounds or so, about 2,200 (0.71%) showed an effect of 50% or more. Effects have a minus sign here. This is one part of the list.

56 compounds from publication PMC4336329 (PLoS ONE, 2015) can be followed below.

Chain of human ether-à-go-go-related gene (hERG) potassium channel (Q12809 whole entry, looked up): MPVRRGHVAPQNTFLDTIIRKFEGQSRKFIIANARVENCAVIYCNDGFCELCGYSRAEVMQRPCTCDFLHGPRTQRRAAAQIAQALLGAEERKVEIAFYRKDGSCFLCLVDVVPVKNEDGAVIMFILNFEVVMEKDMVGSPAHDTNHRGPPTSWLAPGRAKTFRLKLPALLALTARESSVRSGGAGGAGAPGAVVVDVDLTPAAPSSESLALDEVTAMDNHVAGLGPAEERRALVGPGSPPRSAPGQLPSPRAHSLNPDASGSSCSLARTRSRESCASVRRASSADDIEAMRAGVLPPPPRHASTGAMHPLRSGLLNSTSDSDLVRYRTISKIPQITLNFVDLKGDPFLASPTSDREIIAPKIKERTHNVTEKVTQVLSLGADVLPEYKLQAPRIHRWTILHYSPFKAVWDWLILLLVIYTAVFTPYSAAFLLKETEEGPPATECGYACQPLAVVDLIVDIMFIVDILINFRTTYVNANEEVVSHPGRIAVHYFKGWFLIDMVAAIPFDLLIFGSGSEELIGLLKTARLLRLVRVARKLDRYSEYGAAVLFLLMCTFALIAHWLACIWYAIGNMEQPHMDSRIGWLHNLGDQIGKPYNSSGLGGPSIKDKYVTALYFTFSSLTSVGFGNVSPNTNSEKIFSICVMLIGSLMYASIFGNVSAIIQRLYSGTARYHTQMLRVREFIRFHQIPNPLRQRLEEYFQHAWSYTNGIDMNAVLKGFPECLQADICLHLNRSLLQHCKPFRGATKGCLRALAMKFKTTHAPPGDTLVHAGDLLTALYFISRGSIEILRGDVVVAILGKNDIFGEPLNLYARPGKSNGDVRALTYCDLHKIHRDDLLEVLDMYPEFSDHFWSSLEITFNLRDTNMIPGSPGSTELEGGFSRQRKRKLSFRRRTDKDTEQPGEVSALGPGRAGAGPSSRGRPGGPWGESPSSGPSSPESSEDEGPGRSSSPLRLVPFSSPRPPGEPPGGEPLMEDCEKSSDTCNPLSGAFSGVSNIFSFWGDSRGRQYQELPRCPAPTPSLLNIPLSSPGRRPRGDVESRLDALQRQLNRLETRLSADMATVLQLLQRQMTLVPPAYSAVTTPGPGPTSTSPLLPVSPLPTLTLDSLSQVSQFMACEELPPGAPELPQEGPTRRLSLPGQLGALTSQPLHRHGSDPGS

The assay concerns the target human ether-à-go-go-related gene (hERG) potassium channel (human, UniProt Q12809). As to the kind of experiment: primary screen, population patch clamp on CHO cells stably expressing hERG.
In the case of `Cc1noc(C)c1C(=O)Nc1nnc(CC(C)C)s1`, the “hERG current change (%, negative = inhibition) at 1uM” value is given as 8.61%. Take `O=C(c1ccccc1F)N(Cc1nc2ccccc2c(=O)[nH]1)C1CCCC1`: the “hERG current change (%, negative = inhibition) at 1uM” value is 3.13%. For `O=C(NC1CCCCCC1)C1CCN(C(=O)Cc2ccccc2)CC1` the value was 12.6%; for `CC(C)N1C(=O)/C(=C\c2nc3ccccc3c(=O)n2-c2ccccc2)c2ccccc21`, 10.2%; for `CCCN1Cc2cccc(C(N)=O)c2C1=O`, 3.15%. With `CCN(CC)CCn1c(NC(=O)c2ccccc2O)nc2ccccc21` the figure was -17.9%; with `CN(C)N1C(N)=C(C#N)C(c2ccccc2Cl)C2=C1CCCC2=O` (centres unmarked), 7.92%; with `C=C(C)CNC(=S)N/N=C/c1ccc(NC(C)=O)cc1`, 11%. With `C/C(N)=C(/C#N)C(=O)CSc1nnc(Nc2cccc(C)c2)s1`, the “hERG current change (%, negative = inhibition) at 1uM” value came to 11.5%. For `CC(C)Nc1nc(NC(C)C)nc(SCCOC(=O)Nc2ccc(Cl)cc2Cl)n1` the value was 6.83%; for `COc1ccc(OCC(O)CNC(=O)Nc2ccc(F)cc2)cc1` (centres unmarked), 14.9%. As for `COc1cccc(C2=NOC(C(=O)NCc3cccnc3)C2)c1` (centres unmarked), the “hERG current change (%, negative = inhibition) at 1uM” value stood at 21.8%.

Consider `O=C(CCSc1ccccc1)NC1CCCC1`, for which the “hERG current change (%, negative = inhibition) at 1uM” value is recorded as -0.156%. With `Cc1ccccc1C(=O)Nc1ccc(-c2nc3ccc(C(=O)c4ccccc4)cc3[nH]2)cc1` the figure was 16.3%.

For the compound `COc1ccc2cc(CCNS(=O)(=O)c3ccc(NC(C)=O)cc3)c(=O)[nH]c2c1`, the “hERG current change (%, negative = inhibition) at 1uM” value is reported as 7.61%. Regarding `CC(=O)c1ccccc1NC(=O)COC(=O)/C(=C/c1ccccc1)n1nnnc1C`, the “hERG current change (%, negative = inhibition) at 1uM” value is on record as 9.26%.

`COc1ccc(OCCCCOc2ccccc2Cl)cc1`: the “hERG current change (%, negative = inhibition) at 1uM” value was 12.1%. With `COCCN1Cc2cccc(C(=O)NCc3cccs3)c2C1=O` the figure was 11.3%; with `CCn1c(=O)c(C(=O)CN2c3ccccc3CC2C)c(N)n(Cc2ccccc2)c1=O` (centres unmarked), 5.48%. With `C[N+](C)(C)CC=O.[Cl-]` the figure was 13.9%; with `Cc1cc(C)c(S(=O)(=O)N(C)CC(=O)NCc2ccccn2)c(C)c1`, 7.65%; with `O=C(COc1ccccc1)N(Cc1cc2ccccc2[nH]c1=O)CC1CCCO1` (centres unmarked), 8.77%.

Turning to `O=C1CCCC(O)=C1N=Nc1cccc(S(=O)(=O)N2CCOCC2)c1`, the “hERG current change (%, negative = inhibition) at 1uM” value is 6.16%.

With `CCOC(=O)c1ccccc1NC1c2ccccc2C(=O)N1c1cc(C)ccn1` (centres unmarked), the “hERG current change (%, negative = inhibition) at 1uM” value stood at 12.8%. On to `COCc1ccccc1C1=CC(=O)C[C@H](c2ccc(F)cc2)C1`, for which the “hERG current change (%, negative = inhibition) at 1uM” value is on record as 3%. With `CC(=O)c1ccccc1OCC(O)CN1CCN(CCN2C(=O)c3cccc4cccc(c34)C2=O)CC1` (centres unmarked) the figure was -73.5%.

For `CCCC(=O)Nc1ccccc1NC(=O)c1ccc(OCC)cc1`, the “hERG current change (%, negative = inhibition) at 1uM” value is 4.54%. With `COc1ccc(NS(=O)(=O)c2cccc(C(=O)NCC(c3ccco3)N(C)C)c2)cc1` (centres unmarked) the figure was -10.1%; with `Cc1c(C(=O)OC(C)C)[nH]c2c1C(=O)CCC2`, 15.5%.

For the compound `CC1(C)CN=c2s/c(=C\c3ccc(Cl)cc3)c(=O)n2C1`, the “hERG current change (%, negative = inhibition) at 1uM” value is reported as 5.15%.

As to `O=C(NNS(=O)(=O)c1ccc(F)cc1)C1CC(c2cccnc2)=NO1` (centres unmarked), the “hERG current change (%, negative = inhibition) at 1uM” value is 14.8%. Turning to `COc1ccc2c(c1OC)C(=O)N(c1cccc(C)c1)C2=O`, the “hERG current change (%, negative = inhibition) at 1uM” value was determined as 9.81%. For `Cc1ccc(NC(=S)N2CCC(c3nc4ccccc4s3)CC2)cc1C` the value was 7.03%; for `COc1ccc(C2Nc3ccccc3C(=O)N2NC(=O)c2ccccc2)cc1OC` (centres unmarked), 8.11%; for `COc1cc2c(cc1NC(=O)CN(C)Cc1nc3ccccc3c(=O)[nH]1)oc1ccccc12`, 12.5%. With `CC(=O)/C=C(\C)N=Nc1c(O)[nH]c2ccccc12` the figure was 15.7%; with `Cc1ncn(C23CC4CC(CC(C4)C2)C3)n1`, 1.98%.

Regarding `C#CCOCCOCCOCCNc1nc(N2CCN(C(=O)CCCCCCCCCCNC(=O)Cn3cc(C[C@@H](C)O)nn3)CC2)nc(N2CCN(C(=O)CCCCCCCCCCNC(=O)[C@H](CCCN=C(N)N)n3cc(C[C@@H](C)CC)nn3)CC2)n1`, the “hERG current change (%, negative = inhibition) at 1uM” value is on record as 11.5%. With `CC(C)c1ccc(NC(=S)N2CCN(C)CC2)cc1` the figure was 11.4%. For `O=S(=O)(Nc1cccc2ccccc12)c1cccs1` the value was 6.98%. With `COc1ccc(CCNC(=O)CSc2nnc3ccc(-c4ccccn4)nn23)cc1OC` the figure was 14.6%. Take `COc1ccc(-n2c(=S)[nH]c3cc(C(=O)NCc4cccnc4)ccc3c2=O)cc1`: the “hERG current change (%, negative = inhibition) at 1uM” value was 19.1%. As to `CCOc1ccc(NC(=O)CN(C)C(=O)c2ccncc2)cc1OCC`, the “hERG current change (%, negative = inhibition) at 1uM” value is -0.597%. With `COc1ccccc1NC(=O)CN1CCC(C(=O)c2ccc(F)cc2)CC1`, the “hERG current change (%, negative = inhibition) at 1uM” value is -7.17%. For `Cc1cccc(NC(=O)NNC(=O)c2cc3occc3[nH]2)c1C` the value was 4.14%; for `C(=C\c1ccco1)/c1ccc2ccccc2n1`, 10.7%; for `O=C1CSC(c2cccnc2)N1c1ccc(F)cc1` (centres unmarked), 5.62%.

As to `Cc1nc2scc(C)n2c(=O)c1S(=O)(=O)N1CCN(c2ccccn2)CC1`, the “hERG current change (%, negative = inhibition) at 1uM” value came out at 13%. With `N#CCCN(C(=O)COC(=O)COc1ccc(Cl)cc1)c1ccccc1` the figure was -0.133%.

As to `COc1ccc(/C=N/NC(=O)Cn2nnc3ccccc32)cc1OC`, the “hERG current change (%, negative = inhibition) at 1uM” value is reported as -10.7%.

Turning to `Cc1cc(C(F)F)n2nc(C(=O)NCc3ccccc3F)nc2n1`, the “hERG current change (%, negative = inhibition) at 1uM” value worked out at 14.4%. With `O=C(OCc1ccc([N+](=O)[O-])cc1)c1cc2ccccc2oc1=O` the figure was 7.07%. With `O=C(CCc1ccc(S(=O)(=O)NC2CCCCC2)cc1)NCc1ccc(Cl)cc1` the figure was 10.6%; with `CC(O)(CS(=O)(=O)Cc1ccccc1)c1ccccc1` (centres unmarked), 13.8%; with `O=C1CCC([N+](=O)[O-])C(c2ccc(-c3ccccc3)cc2)N1` (centres unmarked), 4.46%. For `Cc1nc2ccccc2n1CCOc1ccc([N+](=O)[O-])cc1` the value was -24.2%.
